The supplement of paper PMC12340641
Whole data set: some 1,000 compounds, median “relative growth recovery (pomalidomide 10 uM = 100%, DMSO = 0%)” near -1.6, cut for the highest 2% near 21. Some of the results follow.

test system: HEK293FT dCK*-IKZF1; test: relative growth recovery (pomalidomide 10 uM = 100%, DMSO = 0%); higher = more growth rescue (IKZF1 fusion degradation); settings: compound concentration: 5 uM; AraC concentration: 0.3 uM; overnight pretreatment + 4 days AraC
Protocol: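 Growth recovery screen of the molecular-glue-like (Specs) library. HEK293FT cells expressing a dCK*-IKZF1 fusion (primary) or dCK* alone (counter) were pretreated overnight with compound at 5 uM, then given 0.3 uM AraC for 4 days. Hoechst nuclei were counted by imaging. Primary: normalised to pomalidomide (100%) and DMSO (0%), mean of 2 replicates. Counter: normalised to no-AraC (100%) and AraC+DMSO (0%), single replicate.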

SMILES | relative growth recovery
COc1ccc(NC(=O)CN2CCC(c3cccc(Nc4nc(C)cs4)n3)CC2)cc1 | 32.9%
NC(=O)CN1CCC(Cc2cccc(Nc3nccs3)n2)CC1 | -17.2%
Cc1ccnc(NS(=O)(=O)c2ccc(NC(=O)c3ccccc3F)cc2)n1 | 1.59%
COc1ccc(C(=O)Nc2ccc(S(=O)(=O)Nc3cc(OC)nc(OC)n3)cc2)c(OC)c1 | 3.94%
CC(=O)Nc1ccc(C(=O)Nc2ccc(S(=O)(=O)Nc3ncccn3)cc2)cc1 | 1.06%
O=C(/C=C/c1ccco1)N1CCCC(c2csc(Nc3ccccn3)n2)C1 (stereo unspecified) | 18.9%
COc1cc(OC)cc(C(=O)Nc2ccc(S(=O)(=O)Nc3ccccn3)cc2)c1 | -2.01%
O=C(Nc1ccc(S(=O)(=O)Nc2ncccn2)cc1)C(F)(F)F | 12.6%
CCCc1cnc(Nc2cccc(C3CCN(C(=O)C4CCCCN4CCO)CC3)n2)s1 (stereo unspecified) | -3.4%
Cc1ccc(Cl)cc1NC(=O)CSc1nnc2c(n1)[nH]c1ccc(F)cc12 | -5.29%
Cc1nc2ccccn2c1CC(=O)N1CCOC(c2cccc(Nc3nccs3)n2)C1 (stereo unspecified) | 10.9%
COc1cc(OC)cc(C(=O)Nc2ccc(S(=O)(=O)Nc3nc(C)cc(C)n3)cc2)c1 | -2.46%
CCCC(=O)Nc1ccc(S(=O)(=O)Nc2cc(OC)nc(OC)n2)cc1 | -4.17%
Cc1cc(Cl)ccc1OCC(=O)Nc1ccc(S(=O)(=O)Nc2ncccn2)cc1 | -2.19%
CCc1ccc(OCC(=O)Nc2ccc(S(=O)(=O)Nc3nc(C)cc(C)n3)cc2)cc1 | 4.75%
CCCc1nc2ccccc2n1CC(=O)N1CCOC(c2cccc(Nc3ncc(C)s3)n2)C1 (stereo unspecified) | -10.1%
Cc1ccn(CCC(=O)N2CCOC(c3cccc(Nc4ncc(C)s4)n3)C2)n1 (stereo unspecified) | 2.46%
Cc1cccc(C)c1OCC(=O)Nc1ccc(S(=O)(=O)Nc2ccccn2)cc1 | -10.1%
CC(=O)N1CCC(c2cccc(Nc3ncc(C)s3)n2)CC1 | -19%
CCc1ccccc1OCC(=O)Nc1ccc(S(=O)(=O)Nc2nc(C)cc(C)n2)cc1 | -4.88%
Nc1ccc(S(=O)(=O)Nc2nccc(/C=C/c3cccc(Br)c3)n2)cc1 | -3.73%
COc1ccccc1C(=O)Nc1ccc(S(=O)(=O)Nc2nccc(C)n2)cc1 | -0.71%
COc1ccc(NS(=O)(=O)c2ccc(NC(=S)NC(=O)/C=C/c3ccccc3)cc2)nn1 | -0.54%
Cc1cnc(Nc2cccc(C3CN(C(=O)CN(C(=O)OC(C)(C)C)c4ccccc4)CCO3)n2)s1 (stereo unspecified) | -8.73%

SMILES | relative growth recovery
CC(=O)Nc1cccc(Oc2ccc3c(c2)C(=O)N(c2ccc(OC(C)=O)cc2)C3=O)c1 | -2.76%
COc1ccc(-c2csc(Nc3ccc(S(=O)(=O)Nc4cc(OC)nc(OC)n4)cc3)n2)cc1 | -2.94%
CCCc1cnc(Nc2cccc(C3CN(C(=O)C4CCCCC4)CCO3)n2)s1 (stereo unspecified) | -7.63%
CCC(=O)Nc1ccc(S(=O)(=O)Nc2nccc(C)n2)cc1 | -1.14%
Cc1ccc(/C=C/C(=O)Nc2ccc(S(=O)(=O)Nc3ncccn3)cc2)cc1 | -2.17%
O=C(Nc1ccc(S(=O)(=O)Nc2ncccn2)cc1)C1CC(=O)N(c2ccccc2)C1 (stereo unspecified) | -18.9%
Nc1ccc(Oc2ccc3c(c2)C(=O)N(CCO)C3=O)cc1 | 2.76%
Cc1ccc(Nc2nc(C3CCCN(C(=O)/C=C/c4csc(C)n4)C3)cs2)nc1 (stereo unspecified) | 31.5%
CC(C)(N)C(=O)N1CCC(c2cccc(Nc3ncc(CC(F)(F)F)s3)n2)CC1 | -18%
Cc1nc(Nc2cccc(C3CCN(C(=O)CCC4NC(=O)NC4=O)CC3)n2)sc1C (stereo unspecified) | 2.9%
COc1ccc(NS(=O)(=O)c2ccc(NS(=O)(=O)c3ccccc3)cc2)nn1 | -7.91%
Cc1cnc(Nc2cccc(C3CN(C(=O)C45CC6CC(CC(O)(C6)C4)C5)CCO3)n2)s1 (stereo unspecified) | -2.49%
Cc1cnc(Nc2cccc(C3CCN(C(=O)[C@H]4CCCC[C@H]4C(=O)N(C)C)CC3)n2)s1 | -13.9%
COc1cc(CN2CCCC2c2cccc(Nc3nccs3)n2)ccc1OCC(N)=O (stereo unspecified) | -1.38%
COc1ccc(Br)cc1/C=N/NS(=O)(=O)c1ccccc1 | -16.9%
Nc1ccc(C(=O)N2CCCC2c2cccc(Nc3nccs3)n2)cn1 (stereo unspecified) | -0.685%
O=C(Nc1ccc(S(=O)(=O)Nc2ccccn2)cc1)c1ccc(Cl)cc1Cl | 0.76%
Cc1ccnc(NS(=O)(=O)c2ccc(NC(=O)C34CC5CC(CC(C5)C3)C4)cc2)n1 | -6.07%
Cc1nc(Nc2cccc(C3CCCN3C(=O)c3cc4ccc(F)cc4[nH]3)n2)sc1C (stereo unspecified) | 11.2%
Cc1cnc(Nc2cccc(C3CCCN3C(=O)CCn3c(=O)oc4ccccc43)n2)s1 (stereo unspecified) | -19%
Cc1csc(Nc2cccc(C3CN(C(=O)CCOc4ccccc4C)CCO3)n2)n1 (stereo unspecified) | 62.8%
CCCCc1cnc(Nc2cccc(C3CCN(C(=O)[C@@H]4CCCN4CCO)CC3)n2)s1 | -3.96%
Cc1cnc(Nc2cccc(C3CCN(CC(N)=O)CC3)n2)s1 | -19.2%
CCc1nnsc1C(=O)N1CCCC1c1cccc(Nc2nccs2)n1 (stereo unspecified) | 2.19%

SMILES | relative growth recovery
Cc1cc(NS(=O)(=O)c2ccc(NC(=O)COc3ccc(C(C)C)cc3)cc2)nc(C)n1 | 1.72%
O=C(Nc1ccc(S(=O)(=O)Nc2ccccn2)cc1)c1cccs1 | -0.55%
Cc1nc(Nc2cccc(C3CCCN3C(=O)CCc3nnc(C(C)C)o3)n2)sc1C (stereo unspecified) | 2.13%
COc1ccc2[nH]c3nc(SCC(=O)N(Cc4ccccc4)c4ccc(F)cc4)nnc3c2c1 | 11.5%
O=C1CCC(N2C(=O)c3cccc(N4CCC(C(=O)O)(c5ccccc5)CC4)c3C2=O)C(=O)N1 (stereo unspecified) | 8.04%
Cc1cnc(Nc2cccc(C3CCCN3C(=O)CCN(C)c3cccc(F)c3)n2)s1 (stereo unspecified) | -18.8%
CCC(=O)N1CCOC(c2cccc(Nc3nc(C)c(C)s3)n2)C1 (stereo unspecified) | 6.1%
COC1CCCC(C(=O)N2CCC(c3cccc(Nc4ncc(C)s4)n3)CC2)C1 (stereo unspecified) | -13%
CC(C)c1cnc(Nc2cccc(C3CN(C(=O)C4CCCCC4)CCO3)n2)s1 (stereo unspecified) | -2.9%
Cc1ccc(C(C)C)c(OCC(=O)Nc2ccc(S(=O)(=O)Nc3ccccn3)cc2)c1 | -1.57%
Cc1cnc(Nc2cccc(C3CN(C(=O)CCC4CCCCC4)CCO3)n2)s1 (stereo unspecified) | 7.2%
CCOc1ccc(C(=O)Nc2ccc(S(=O)(=O)Nc3nccc(C)n3)cc2)cc1OCC | 0.465%
COc1cc(NS(=O)(=O)c2ccc(Nc3nc(-c4ccc(C)c(C)c4)cs3)cc2)nc(OC)n1 | 0.29%
COc1ccc(N2C(=O)c3ccc(Oc4ccccc4)cc3C2=O)cc1 | -18.1%
Cc1ccc(S(=O)(=O)CC(=O)Nc2ccc(S(=O)(=O)Nc3ncccn3)cc2)cc1 | -0.045%
CC(C)Cc1nc2ccccc2n1CC(=O)N1CCC(Cc2cccc(Nc3nccs3)n2)CC1 | -1.89%
CCC(C)C(=O)Nc1ccc(S(=O)(=O)Nc2ncccn2)cc1 (stereo unspecified) | -4.26%
Cc1nc(Nc2cccc(C3CN(C(=O)c4cn5cccc(C)c5n4)CCO3)n2)sc1C (stereo unspecified) | 2.21%
CCNc1nc(NC(C)C)nc(NS(=O)(=O)c2ccc(N)cc2)n1 | 0.855%
COc1nccnc1NS(=O)(=O)c1ccc(NCc2ccccc2O)cc1 | -3.99%
CS(=O)(=O)NCC(=O)N1CCC(c2cccc(Nc3ncc(-c4ccccc4)s3)n2)CC1 | -20.5%
Cc1csc(Nc2cccc(C3CCCN3C(=O)COCCN3CCCC3=O)n2)n1 (stereo unspecified) | 1.94%
O=C(O)c1ccc(Oc2ccc3c(c2)C(=O)N(c2nccs2)C3=O)cc1 | 1.86%
NC(=O)CN1CCCC(c2csc(Nc3ccccn3)n2)C1 (stereo unspecified) | 3.12%

SMILES | relative growth recovery
COc1ccccc1OCC(=O)Nc1ccc(S(=O)(=O)Nc2ncccn2)cc1 | 1.59%
Cc1cnc(Nc2cccc(C3CCN(C(=O)CN(C)C)CC3)n2)s1 | -13%
COCCC(=O)N1CCC(c2cccc(Nc3ncc(C)s3)n2)CC1 | -3.65%
CC(=O)Nc1ccc(-c2csc(Nc3cccc(C)n3)n2)cc1 | 0.905%
O=C(O)CCOCCOCCNc1cccc2c1C(=O)N(C1CCC(=O)NC1=O)C2=O (stereo unspecified) | 4.37%
COc1cc(NS(=O)(=O)c2ccc(NS(=O)(=O)c3ccccc3)cc2)nc(OC)n1 | -5.07%
CCCOc1ccc(/C=C/C(=O)Nc2ccc(S(=O)(=O)Nc3ncccn3)cc2)cc1OC | -2.5%
Cc1cnc(Nc2cccc(C3CCN(C(=O)CCc4nc5ccccc5[nH]4)CC3)n2)s1 | -4.26%
COc1ccccc1CCC(=O)N1CCC(c2cccc(Nc3nc(C)cs3)n2)CC1 | 2.75%
Cc1cc(C)nc(NS(=O)(=O)c2ccc(NC(=O)CSc3nc(C)cc(C)c3C#N)cc2)n1 | -4.5%
Cc1cccc(OCC(=O)Nc2ccc(S(=O)(=O)Nc3cc(C)nc(C)n3)cc2)c1 | -1.38%
CCCOc1ccc(C(=O)Nc2ccc(S(=O)(=O)Nc3nc(C)cc(C)n3)cc2)cc1 | -2.85%
Cc1cc(C)cc(OCC(=O)Nc2ccc(S(=O)(=O)Nc3ncccn3)cc2)c1 | -0.16%
Cc1cnc(Nc2cccc(C(CO)C3CCN(C(=O)C4(NC(=O)OC(C)(C)C)CCCCC4)CC3)n2)s1 (stereo unspecified) | -3.12%
CCOCCC(=O)Nc1ccc(S(=O)(=O)Nc2ncccn2)cc1 | 0.59%
Cc1ccnc(NS(=O)(=O)c2ccc(NC(=O)c3ccc(Cl)cc3[N+](=O)[O-])cc2)n1 | -0.255%
Cc1cc(C)nc(NS(=O)(=O)c2ccc(NC(=O)c3ccc(Cl)cc3Cl)cc2)n1 | -0.215%
Cc1ccnc(NS(=O)(=O)c2ccc(NC(=O)Cc3ccc(Cl)cc3)cc2)n1 | 2.92%
O=C(CSc1nnc2c(n1)[nH]c1ccc(Cl)cc12)Nc1ccc(Cl)cc1 | 4.82%
CC(C)(C)OC(=O)N1CCOCC1C(=O)N1CCC(c2cccc(Nc3ncc(-c4ccccc4)s3)n2)CC1 (stereo unspecified) | -4.08%
CN(CCN1CCC(C(=O)O)CC1)c1cccc2c1C(=O)N(C1CCC(=O)NC1=O)C2=O (stereo unspecified) | 5.47%
Cc1cnc(Nc2cccc(C3CCN(C(=O)C4C5C=CC6(CN(C)C(=O)C46)O5)CC3)n2)s1 (stereo unspecified) | -3.56%
O=C(Nc1ccc(S(=O)(=O)Nc2ncccn2)cc1)c1ccc(Br)cc1 | 0.355%
CNC(=O)C1(c2cccc(Nc3ncc(C)s3)n2)CN(C(=O)Cn2c(CC(C)C)nc3ccccc32)CCO1 (stereo unspecified) | 2.15%
